According to the supplement of paper PMC4996465:

How the values were obtained:
KB3-1 [1] = experiment: log AC50 of viability decrease (48 h) (log10 M); higher = less potent
Protocol: (§1)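 Eleven-dose screen of the NCATS MIPE 3 library on cells without co-treatment; CellTiter-Glo after 48 h. AC50 from the curve fit; only inhibitory curves of the better fit classes are listed.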

Nalm-6 [2] = experiment: as above
Protocol: as §1

KB3-1 [3] = experiment: viability (% of DMSO control); higher = more viable cells
Protocol: (§2)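 Eleven-dose screen of the NCATS MIPE 3 library on cells without co-treatment; CellTiter-Glo after 48 h, as % of DMSO wells.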

Nalm-6 [4] = experiment: as above
Protocol: as §2

Row | Structure (SMILES) | log AC50 of viability decrease (KB3-1 [1]) | log AC50 of viability decrease (Nalm-6 [2]; run: 1) | log AC50 of viability decrease (Nalm-6 [2]; run: 2) | viability (KB3-1 [3]; 0.00078 µM) [%] | viability (KB3-1 [3]; 0.00234 µM) [%] | viability (KB3-1 [3]; 0.00702 µM) [%] | viability (KB3-1 [3]; 0.0211 µM) [%] | viability (KB3-1 [3]; 0.0632 µM) [%] | viability (KB3-1 [3]; 0.19 µM) [%] | viability (KB3-1 [3]; 0.569 µM) [%] | viability (KB3-1 [3]; 1.71 µM) [%] | viability (KB3-1 [3]; 5.12 µM) [%] | viability (KB3-1 [3]; 15.4 µM) [%] | viability (KB3-1 [3]; 46.1 µM) [%] | viability (Nalm-6 [4]; run: 1, 0.00078 µM) [%] | viability (Nalm-6 [4]; run: 1, 0.00234 µM) [%] | viability (Nalm-6 [4]; run: 1, 0.00702 µM) [%] | viability (Nalm-6 [4]; run: 1, 0.0211 µM) [%] | viability (Nalm-6 [4]; run: 1, 0.0632 µM) [%] | viability (Nalm-6 [4]; run: 1, 0.19 µM) [%] | viability (Nalm-6 [4]; run: 1, 0.569 µM) [%] | viability (Nalm-6 [4]; run: 1, 1.71 µM) [%] | viability (Nalm-6 [4]; run: 1, 5.12 µM) [%] | viability (Nalm-6 [4]; run: 1, 15.4 µM) [%] | viability (Nalm-6 [4]; run: 1, 46.1 µM) [%] | viability (Nalm-6 [4]; run: 2, 0.00078 µM) [%] | viability (Nalm-6 [4]; run: 2, 0.00234 µM) [%] | viability (Nalm-6 [4]; run: 2, 0.00702 µM) [%] | viability (Nalm-6 [4]; run: 2, 0.0211 µM) [%] | viability (Nalm-6 [4]; run: 2, 0.0632 µM) [%] | viability (Nalm-6 [4]; run: 2, 0.19 µM) [%] | viability (Nalm-6 [4]; run: 2, 0.569 µM) [%] | viability (Nalm-6 [4]; run: 2, 1.71 µM) [%] | viability (Nalm-6 [4]; run: 2, 5.12 µM) [%] | viability (Nalm-6 [4]; run: 2, 15.4 µM) [%] | viability (Nalm-6 [4]; run: 2, 46.1 µM) [%]
1 | C[C@@H](Oc1cc(-n2cnc3ccc(CN4CCN(C)CC4)cc32)sc1C(N)=O)c1ccccc1C(F)(F)F | -8.73 | -7.93 | -7.88 | 100 | 61 | 27.9 | 28.7 | 27.9 | 31.6 | 32.6 | 36.8 | 35.8 | 33.1 | 3.53 | 92.2 | 94.3 | 86.8 | 16.1 | 13.8 | 14.9 | 16.7 | 16.3 | 13.6 | 16.2 | 2.13 | 106 | 102 | 100 | 21.7 | 11.3 | 11.3 | 11.5 | 12.2 | 10.2 | 10.3 | 1.75
2 | Cc1cc2c(F)c(Oc3ncnn4cc(OC[C@@H](C)O)c(C)c34)ccc2[nH]1 [Brivanib] | -4.83 | -4.93 | -4.83 | 101 | 100 | 102 | 103 | 100 | 101 | 103 | 94.2 | 83.1 | 76.4 | 57.4 | 102 | 107 | 108 | 107 | 116 | 108 | 99.9 | 94 | 56 | 55 | 16.1 | 106 | 109 | 106 | 109 | 105 | 106 | 97 | 92.6 | 73.6 | 61.1 | 26.2
3 | COc1cc2nc(-c3ccc(N4CCN(C)CC4)cc3)nc(NCCN3CCOCC3)c2cc1OC | -4.73 | -4.93 | -5.63 | 88.6 | 88.2 | 92 | 90.2 | 87.6 | 90.1 | 71.4 | 61.1 | 58.6 | 51.4 | 5.32 | 94.6 | 96.6 | 101 | 104 | 73.7 | 98.6 | 81.9 | 58.5 | 63.2 | 31.5 | 2.03 | 106 | 100 | 104 | 108 | 104 | 101 | 82.6 | 66.2 | 21.8 | 5.3 | 3.62
4 | CC[C@@]1(O)C(=O)OC\C2=C1\C=C3/N(CC4=CC5=C(C=CC(=C5CN(C)C)O)N=C34)C2=O [Topotecan hydrochloride] | -5.23 | -7.98 | -7.93 | 108 | 101 | 106 | 106 | 108 | 102 | 90.9 | 76 | 63.5 | 46.6 | 27.6 | 100 | 96.1 | 79.3 | 12.5 | 9.13 | 9.6 | 8.5 | 9.06 | 8.33 | 7 | 9.95 | 101 | 102 | 81.1 | 28 | 7.13 | 7.9 | 6.84 | 7.04 | 4.42 | 3.41 | 5.35
5 | CC(C)(C)c1cnc(CSc2cnc(NC(=O)C3CCNCC3)s2)o1 [SNS-032] | -7.28 | -7.18 | -7.48 | 92.7 | 96.1 | 102 | 91.9 | 50.2 | 24.9 | 28.7 | 28.7 | 23.8 | 21.3 | 12.7 | 105 | 102 | 109 | 89.1 | 64.4 | 9.69 | 21.7 | 23.8 | 19.5 | 18 | 2.73 | 105 | 106 | 105 | 79.6 | 34.8 | 7.84 | 18.3 | 18.1 | 21.4 | 13.2 | 3.36
6 | COc1ccc2c(c[n+](C)c3c4cc5c(cc4ccc23)OCO5)c1OC [Chelerythrine chloride] | -5.08 | -5.88 | -5.88 | 101 | 104 | 101 | 98.5 | 101 | 98.1 | 97 | 96.2 | 79.8 | 13.2 | 2.47 | 116 | 124 | 121 | 120 | 115 | 117 | 84 | 54.3 | 8.01 | 6.16 | 2.93 | 108 | 108 | 116 | 110 | 104 | 107 | 97.8 | 43.2 | 5.9 | 5.68 | 3.6
7 | COc1cccc2c1CCCC2CCCN1CCN(C2CCCCC2)CC1 (stereo not given) [PB-28] | -5.13 | -4.78 | -4.78 | 109 | 104 | 109 | 110 | 106 | 99.8 | 105 | 94.1 | 93.4 | 74 | 69.1 | 118 | 114 | 119 | 122 | 116 | 116 | 116 | 99.9 | 84.4 | 60.4 | 8.97 | 103 | 106 | 105 | 106 | 102 | 93.3 | 102 | 97.7 | 73.3 | 49.8 | 1.02
8 | CC(C)CC(=O)Nc1n[nH]c2c1CN(C(=O)C1CCN(C)CC1)C2(C)C | -6.58 | -7.13 | -7.28 | 98.6 | 99.2 | 102 | 94.7 | 91.2 | 76.2 | 29 | 31.1 | 26.6 | 24.2 | 21.5 | 86.5 | 96.8 | 87.7 | 75.8 | 56.6 | 40.1 | 17.1 | 9.15 | 20.9 | 23.6 | 16.3 | 101 | 101 | 95.1 | 83 | 52.6 | 36.7 | 10.9 | 6.68 | 21.7 | 22.1 | 14.3
9 | Cn1c(=O)n(-c2ccc(C(C)(C)C#N)cc2)c2c3cc(-c4cnc5ccccc5c4)ccc3ncc21 [BEZ235] | -7.48 | -5.53 | -5.43 | 101 | 101 | 91.6 | 79.6 | 62.4 | 47.1 | 42.4 | 47.6 | 42.4 | 38.3 | 29.6 | 98.6 | 92.6 | 96.5 | 88.5 | 77.1 | 57.6 | 63 | 60.5 | 50.2 | 35.2 | 15.9 | 102 | 103 | 103 | 98.8 | 90.8 | 72.8 | 68.9 | 56.7 | 40.9 | 35.7 | 11.1
10 | CO.COc1cc(Nc2c(C#N)cnc3cc(OCCCN4CCN(C)CC4)c(OC)cc23)c(Cl)cc1Cl [Bosutinib] | -4.63 | -5.18 | -4.88 | 104 | 105 | 105 | 93.6 | 90.2 | 85.2 | 77.7 | 83.9 | 74.3 | 54 | 4.4 | 120 | 116 | 124 | 107 | 108 | 112 | 79.1 | 80.8 | 55.3 | 41.4 | 6.08 | 105 | 108 | 109 | 115 | 112 | 108 | 91.3 | 77.4 | 73.6 | 42.6 | 4.43

Structures can show the parent of a compound that is named as a salt. Viability of KB3-1 and Nalm-6 cells after 48 h of drug alone (CellTiter-Glo), 11 doses over about 4.5 log units. % of DMSO wells, lower = more cell loss; AC50 from the fitted curve, lower = more potent. No active / inactive call. Nalm-6 was screened in two runs. AC50 is listed only for well-fitted inhibitory curves. KB3-1 is a HeLa-derived carcinoma line, Nalm-6 a B-cell precursor leukaemia line.
